According to patent US4731109A, “Herbicidal 2-haloacetanilides” (Monsanto Company, priority 1982, dated 1988):
For some of these results: At least one read-out could not be matched to a standard name with certainty. Some of these results come from one statement about several compounds together.

Assays:
[1] = test system: soybeans; assay: Greenhouse pre-emergence GR15/GR85 selectivity test; type: in vivo
Source text: A good grade of top soil is placed in aluminum pans and compacted to a depth of three-eighths to one-half inch from the top of the pan. On the top of the soil is placed a number of seeds or vegetative propagules of various plant species. The soil required to level fill the pans after seeding or adding vegetative propagules is weighed into a pan. The soil and a known amount of the active ingredient applied in a solvent or as a wettable powder suspension are thoroughly mixed, and used to cover the prepared pans. After treatment, the pans are given an initial overhead irrigation of eater, equivalent to one-fourth inch (0.64 cm) rainfall, then watered by subirrigation as need to give adequate moisture for germination and growth. As an alternative procedure, the overhead irrigation may be omitted. Observations are made about 2-3 weeks after seeding and treatment.
In the discussion and tables of data below, reference is made to herbicide application rates symbolized as "GR15 " and "GR85 "; these rates are given in kilograms per hectare (kg/ha) which are convertible into pounds per acre (lbs/A) by dividing the kg/ha rate by 1.12.
A further guide to the effectiveness of a chemical as a selective herbicide is the "selectivity factor" ("SF") for a herbicide in given crops and weeds. The selectivity factor is a measure of the relative degree of crop safety and weed injury and is expressed in terms of the GR15 /GR85 ratio, i.e., the GR15 rate for the crop divided by the GR85 rate for the weed, both rates in kg/ha (lb/A). In the tables below, selectivity factors are shown in parenthesis following the GR85 rate for each weed; the symbol "NS" indicates "non-selective". Marginal or undetermined selectivity is indicated by a dash (--).
In Table IV pre-emergence herbicidal activity data are presented comparing the relative efficacy of the invention compounds and said prior art compounds as selective herbicides against the resistant and troublesome perennial weeds quackgrass and yellow nutsedge in soybeans and corn, respectively. These weeds are commonly associated with such major crops as corn and soybeans. The test data in Table IV were obtained under identical procedural conditions and represent two replicate runs (except for the compound of Example 9 which was present in one comparative test). The test procedure was the same as described for Tables II and III but modified by the application of an initial overhead irrigation equivalent to 1/4" (0.64 cm) rainfall; subsequent watering was accomplished by subirrigation. "NS" means non-selective within the test limits.
Additionally, pre-emergence herbicidal data from other tests have established that compounds according to this invention also selectively suppress quackgrass, yellow nutsedge and/or other weeds in one or more of the crops cotton, peanuts, bush beans and/or rape. For example, in Table VI are presented data showing the herbicidal selectivity of the compounds of Examples 1 and 2 against quackgrass in rape and snap beans. Unless otherwise noted; greenhouse tests in Table VI and in other tables below involved herbicide treatments by soil incorporation and an initial overhead irrigation followed by subirrigation as described above.

[2] = test system: Quackgrass; assay: Herbicidal effect in a variety of soil types; type: in vivo; conditions: Tables XVII A-C

For `COCCN(C(=O)CCl)c1ccccc1C(F)(F)F` [A, N-(methoxyethyl)-2'-trifluoromethyl-2-chloroacetanilide, reference compound], the GR15 ([1]; Table IV, Replicate #1) was over 2.2 Kg/Ha and the GR15 ([1]; Table IV, Replicate #2) was over 2.2 Kg/Ha.

In the case of `CCOCCN(C(=O)CCl)c1ccccc1C(F)(F)F` [B, N-(ethoxyethyl)-2'-trifluoromethyl-2-chloroacetanilide, reference compound], the GR15 ([1]; Table IV, Replicate #1) is reported as 2.0 Kg/Ha and the GR15 ([1]; Table IV, Replicate #2) is reported as 2.0 Kg/Ha.

Compound `COCCN(C(=O)CCl)c1c(C)cccc1C(F)(F)F` [C, N-(methoxyethyl)-2'-trifluoromethyl-6'-methyl-2-chloroacetanilide, reference compound] has a GR15 ([1]; Table V) of over 2.8 Kg/Ha.

For `CCOCCN(C(=O)CCl)c1c(C)cccc1C(F)(F)F` [E, N-(ethoxyethyl)-2'-trifluoromethyl-6'-methyl-2-chloroacetanilide, reference compound], the GR15 ([1]; Table V) was 0.84 Kg/Ha.

`CCOCN(C(=O)CCl)c1c(C)cccc1C(F)(F)F` [Example 1, N-(ethoxymethyl)-2'-trifluoromethyl-6'-methyl-2-chloroacetanilide] was tested, and the GR15 ([1]; Table IV, Replicate #1) was 3.1 Kg/Ha, the GR15 ([1]; Table IV, Replicate #2) was 2.2 Kg/Ha and the GR15 ([1]; Table V, extrapolated value) was 2.8 Kg/Ha. For the same compound, the GR15 ([1]; Table XII) was 0.87 Kg/Ha, the GR15 ([1]; Table XIII) was 0.81 Kg/Ha and the “sensitivity to soil types of varying organic matter content” value (from here on “sensitivity to soil types”) [2] was “quite insensitive to soil types of varying organic matter content”.

In the case of `CC(C)OCN(C(=O)CCl)c1ccccc1C(F)(F)F` [Example 2, N--(isopropoxymethyl)-2'-trifluoromethyl-2-chloroacetanilide], the GR15 ([1]; Table IV, Replicate #1) is reported as 1.7 Kg/Ha, the GR15 ([1]; Table IV, Replicate #2) is reported as 1.7 Kg/Ha and the “sensitivity to soil types” value [2] is reported as “quite insensitive to soil types of varying organic matter content”.

In the case of `CCCOCN(C(=O)CCl)c1c(C)cccc1C(F)(F)F` [Example 3, N--(n-propoxymethyl)-2'-trifluoromethyl-6'-methyl-2-chloroacetanilide], the GR15 ([1]; Table IV, Replicate #1) is reported as 1.1 Kg/Ha, the GR15 ([1]; Table IV, Replicate #2) is reported as 1.1 Kg/Ha and the “sensitivity to soil types” value [2] is reported as “quite insensitive to soil types of varying organic matter content”.

For `Cc1cccc(C(F)(F)F)c1N(COC(C)C)C(=O)CCl` [Example 4, N--(isopropoxymethyl)-2'-trifluoromethyl-6'-methyl-2-chloroacetanilide], the GR15 ([1]; Table IV, Replicate #1) was 1.1 Kg/Ha, the GR15 ([1]; Table IV, Replicate #2) was 1.7 Kg/Ha and the “sensitivity to soil types” value [2] was “quite insensitive to soil types of varying organic matter content”.

For `Cc1cccc(C(F)(F)F)c1N(COCC(C)C)C(=O)CCl` [Example 5, N--(isobutoxymethyl)-2'-trifluoromethyl-6'-methyl-2-chloroacetanilide], the “sensitivity to soil types” value [2] was “quite insensitive to soil types of varying organic matter content”.

In the case of `CCOCN(C(=O)CCl)c1c(CC)cccc1C(F)(F)F` [Example 9, N--(ethoxymethyl)-2'-trifluoromethyl-6'-ethyl-2-chloroacetanilide], the GR15 ([1]; Table IV, Replicate #2) is reported as 2.1 Kg/Ha, the GR15 ([1]; Table XII) is reported as 2.0 Kg/Ha and the GR15 ([1]; Table XIII) is reported as 1.7 Kg/Ha. For the same compound, the “sensitivity to soil types” value [2] was “quite insensitive to soil types of varying organic matter content”.

`CCCOCN(C(=O)CCl)c1c(CC)cccc1C(F)(F)F` [Example 10, N--(n-propoxymethyl)-2'-trifluoromethyl-6'-ethyl-2-chloroacetanilide] was tested, and the GR15 ([1]; Table XII) was 2.2 Kg/Ha and the GR15 ([1]; Table XIII) was 1.5 Kg/Ha.
